Among all 390,000 compounds or so, about 17,000 (4.4%) were called active. This list was built around the results that the source calls inconclusive (neither active nor inactive); the mix of calls is not that of the screen. The call rests on the fitted dose curve; in most records, active means well fitted inhibition curve with a large enough effect; inconclusive means small, poorly fitted or top-dose-only effect; inactive means no such curve, though single readings can be large or run the other way. Potencies of inconclusive entries are doubtful fits and often do not repeat.
Each compound was assayed against Lysine-specific demethylase 4A (Homo sapiens) (UniProt O75164) (assay: qHTS Assay for Inhibitors of JMJD2A-Tudor Domain). Settings: AlphaScreen JMJD2A-Tudor / H3K4me3 peptide binding; activity change, negative = inhibition: at 114 µM (top of the series).
Sequence of UniProt O75164 (O75164 whole entry, looked up, the tested form may be a part): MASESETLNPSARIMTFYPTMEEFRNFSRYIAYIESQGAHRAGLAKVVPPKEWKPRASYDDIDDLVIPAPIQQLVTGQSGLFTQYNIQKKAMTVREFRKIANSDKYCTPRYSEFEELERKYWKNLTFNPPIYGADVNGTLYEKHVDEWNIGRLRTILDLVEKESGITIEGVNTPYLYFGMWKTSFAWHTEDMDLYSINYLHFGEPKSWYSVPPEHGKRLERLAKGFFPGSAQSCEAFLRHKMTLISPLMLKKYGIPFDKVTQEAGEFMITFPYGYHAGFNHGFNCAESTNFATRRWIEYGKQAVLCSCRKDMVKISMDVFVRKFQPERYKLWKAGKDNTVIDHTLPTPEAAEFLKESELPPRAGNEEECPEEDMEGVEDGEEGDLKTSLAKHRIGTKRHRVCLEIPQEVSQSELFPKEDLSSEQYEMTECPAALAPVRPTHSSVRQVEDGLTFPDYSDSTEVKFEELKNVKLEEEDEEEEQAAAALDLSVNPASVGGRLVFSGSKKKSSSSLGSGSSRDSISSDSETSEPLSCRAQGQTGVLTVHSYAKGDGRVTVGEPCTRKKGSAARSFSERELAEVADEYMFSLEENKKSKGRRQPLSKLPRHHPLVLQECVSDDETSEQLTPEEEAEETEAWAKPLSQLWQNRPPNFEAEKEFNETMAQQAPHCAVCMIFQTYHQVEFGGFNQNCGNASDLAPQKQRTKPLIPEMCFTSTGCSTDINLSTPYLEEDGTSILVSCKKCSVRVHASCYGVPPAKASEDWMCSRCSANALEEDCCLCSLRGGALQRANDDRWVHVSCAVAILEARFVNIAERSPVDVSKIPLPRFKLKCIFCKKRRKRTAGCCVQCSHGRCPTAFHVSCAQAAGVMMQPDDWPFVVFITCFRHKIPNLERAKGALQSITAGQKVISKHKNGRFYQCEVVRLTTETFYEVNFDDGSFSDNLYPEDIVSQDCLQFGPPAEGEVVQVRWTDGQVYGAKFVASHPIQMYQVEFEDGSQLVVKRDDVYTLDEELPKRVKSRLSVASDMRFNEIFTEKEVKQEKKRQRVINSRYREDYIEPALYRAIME
CC(C)C(=O)Nc1ccc(N2CCN(c3ccc(F)cc3)CC2)cc1 was tested, and the “activity change, negative = inhibition” value was inactive: -5.59%. With CCN(c1ccccc1)c1ncnc2c1cnn2-c1ccc(C)cc1C the “activity change, negative = inhibition” value was inactive: -5%. CCOC(=O)C1=C(O)c2ccccc2C(=O)/C1=C\c1ccc(CC)cc1 was tested, and the Potency was active: 22.4 µM. For COC(=O)CS(=O)(=O)c1nnc([C@H](Cc2ccccc2)NC(=O)OC(C)(C)C)o1, the Potency was active: 79.4 µM. For O=C(CSc1nc2ccc([N+](=O)[O-])cc2s1)NC1CCS(=O)(=O)C1 (stereo unspecified), the Potency was inconclusive: 79.4 µM [inhibitor, partial curve]. COc1ccc(/C=C2\SC(=S)N(CC3CCCO3)C2=O)cc1 (stereo unspecified) was tested, and the Potency was inconclusive: 20 µM [inhibitor, partial curve]. For COc1ccc(OC)c(/C=N\NC(=O)c2cc3c(ccc4ccccc43)o2)c1, the “activity change, negative = inhibition” value was inactive: -5.84%. For COc1ccc(N2CCN(C(=O)c3ccc(NS(=O)(=O)c4cccc(F)c4)cc3)CC2)cc1, the Potency was inconclusive: 50.1 µM [inhibitor, partial curve]. In the case of COc1cccc(-c2nnc3n2N=C(c2ccc(OC)cc2OC)CS3)c1, the Potency is reported as inconclusive: 56.2 µM [inhibitor, partial curve, poor fit]. CCC(=O)Nc1cccc(NC(=S)NC(=O)c2cccc(C)c2)c1 was tested, and the “activity change, negative = inhibition” value was inactive: -9.22% [at 57.1 µM]. With O=C(COc1ccc(F)cc1)NNC(=O)Cn1ccc(C(F)(F)F)n1 the “activity change, negative = inhibition” value was inactive: 3.01%. In the case of COc1ccccc1S(=O)(=O)CC(O)COc1ccc(F)cc1Cl (stereo unspecified), the “activity change, negative = inhibition” value is reported as inactive: -4.01%. Cc1ccc(CCc2nnc(SCC(=O)Nc3ccccc3Cl)n2-c2ccccc2)o1 was tested, and the “activity change, negative = inhibition” value was inactive: -32.5%. CC(C)(C)OC(=O)C[C@@H]1C/C=C\C[C@H](CC(=O)N(CCO)Cc2ccccc2)C(=O)N[C@@H](Cc2c[nH]c3ccccc23)COC1=O was tested, and the Potency was inconclusive: 56.2 µM [inhibitor, partial curve]. For CCOc1ccc(-n2c(SCC(=O)Nc3ccc(OC)cc3)nc3sc4c(c3c2=O)CCN(C)C4)cc1, the Potency was inconclusive: 50.1 µM [inhibitor, partial curve, poor fit]. With CCc1cc2cc(C)ccc2nc1SCC(=O)N1CCN(C(=O)c2ccco2)CC1 the Potency was inconclusive: 79.4 µM [inhibitor, partial curve]. COc1cc(CN2CCN(c3cc(C)ccc3C)CC2)cc([N+](=O)[O-])c1O was tested, and the Potency was inconclusive: 79.4 µM [inhibitor, partial curve]. O=C(NC(=S)NCc1ccc(F)cc1)c1ccccc1 was tested, and the “activity change, negative = inhibition” value was inactive: -9.66%. In the case of COc1ccc2c(CC(=O)OCC(=O)N3CCc4ccccc43)coc2c1, the Potency is reported as inconclusive: 28.2 µM [inhibitor, single point]. With O=C(Oc1c(Cl)cc(Cl)c2cccnc12)N1CCCCC1 the Potency was inconclusive: 100 µM [inhibitor, partial curve]. With O=C(CSc1nnc2n1CCCN2C(=S)Nc1ccc(Cl)cc1)c1ccccc1 the Potency was inconclusive: 89.1 µM [inhibitor, single point]. COc1ccc(CN(CC(=O)NCc2ccc(F)cc2)C(=O)CCC(=O)Nc2ccccn2)cc1 was tested, and the “activity change, negative = inhibition” value was inactive: -15.2%. With CC(C)Nc1oc(-c2cccc3ccccc23)nc1C#N the “activity change, negative = inhibition” value was inactive: 27.3%. With COc1cc2ncc(C(=O)c3ccccc3)c(N3CCN(Cc4ccccc4)CC3)c2cc1OC the Potency was active: 22.4 µM. CCCn1c(CCNc2nc(-c3ccc(Cl)c([N+](=O)[O-])c3)cs2)nc2cc(Cl)c(Cl)cc21 was tested, and the Potency was inconclusive: 56.2 µM [inhibitor, partial curve]. In the case of Cc1nc2ccccc2c2c(N)c3ccccc3n12, the Potency is reported as inconclusive: 79.4 µM [inhibitor, partial curve]. Cc1cc(C)nc(SCc2cn3c(C)cccc3n2)n1 was tested, and the Potency was inconclusive: 89.1 µM [inhibitor, single point]. With COc1ccc(CSc2nnc(NC(C)=O)s2)cc1[N+](=O)[O-] the Potency was inconclusive: 17.8 µM [inhibitor, partial curve]. In the case of COc1ccc(OCCNc2cc(N3CCCCC3)ccc2[N+](=O)[O-])cc1, the Potency is reported as inconclusive: 11.2 µM [inhibitor, full curve]. For CCOC(=O)c1ccc(/[N+]([O-])=C/c2ccccc2)cc1, the Potency was active: 31.6 µM. Oc1[nH]c2ccccc2c1C1=NCCCCC1 was tested, and the Potency was inconclusive: 31.6 µM [inhibitor, partial curve]. For COc1ccc(Cn2c(C(=O)O)c(CNCCc3cccs3)c3ccc(C)cc32)cc1, the “activity change, negative = inhibition” value was inactive: -33.1%. In the case of O=C(Nc1ccc(C(=O)N2CCCc3ccccc32)cc1)c1cccs1, the Potency is reported as active: 100 µM. For O=C1C(NS(=O)(=O)c2ccccc2)=C(N2CCN(c3ccc(F)cc3)CC2)C(=O)c2ccccc21, the Potency was inconclusive: 3.16 µM [inhibitor, partial curve]. With CC1CCC(N2CCN(S(C)(=O)=O)CC2)CC1 (stereo unspecified) the Potency was active: 3.16 µM. For CC(=O)Nc1ccc(SCC(Cc2ccccc2)N2CCN(CCc3ccccc3)CCC2=O)cc1 (stereo unspecified), the Potency was inconclusive: 50.1 µM [inhibitor, partial curve]. In the case of COc1ccc(/C=C/C(=O)Nc2sc3c(c2C(N)=O)CCCC3)cc1, the Potency is reported as inconclusive: 89.1 µM [inhibitor, single point]. With S=C1Cc2ccccc2C(c2ccc(Cl)cc2)N1 (stereo unspecified) the Potency was inconclusive: 50.1 µM [inhibitor, partial curve]. O=C(O)C1CCN(C(=O)c2ccc(Cl)cc2)CC1 was tested, and the “activity change, negative = inhibition” value was inactive: -9.43%. CCOC(=O)c1cc2c(C)n(-c3ccc(OCC)cc3)c(C)c2ccc1=O was tested, and the Potency was inconclusive: 31.6 µM [inhibitor, partial curve]. With O=C1NCCN(Cc2ccoc2)C1CC(=O)N(Cc1ccccc1)CC1CCC1 (stereo unspecified) the “activity change, negative = inhibition” value was inactive: -10.7%. CC1(C)CCc2cc(S(=O)(=O)N3CCN(S(=O)(=O)c4c(F)cccc4F)CC3)ccc2O1 was tested, and the Potency was “inactive”. For COc1ccccc1CN1COc2ccc3c(oc(=O)c4ccccc43)c2C1, the Potency was inconclusive: 14.1 µM [inhibitor, full curve]. In the case of S=c1cnc2ccccc2[nH]1, the Potency is reported as active: 4.47 µM. With CC1Cc2ccccc2N1CC(=O)Nc1ccc(S(N)(=O)=O)cc1 (stereo unspecified) the Potency was inconclusive: 56.2 µM [inhibitor, partial curve, poor fit]. In the case of O=C(c1ccc(-c2ccccc2)cc1)C1CCCN(Cc2ccncc2)C1 (stereo unspecified), the Potency is reported as inconclusive: 50.1 µM [inhibitor, partial curve].

Source: PubChem BioAssay AID504339 (National Center for Advancing Translational Sciences (NCATS), 2011)
Further: nearly all actives have a fitted effect of over 50% in size.
On the % scale 0 is the no-effect control and ±100 the full control effect; potency means the concentration at half of the fitted maximal effect; tags describe the fitted curve by direction and shape.
